To fix the notation:
B1: chr4:39507275:39507276:-_ENSG00000109814_ENST00000316423|hu_hu|FALSE|FALSE (ssRNA)
RNA: GGGAGUUCUACAGUCCGACGAUCACUAGAAGAUUCUCUUGUAUCACCAGUGUCCUUUUUGAAUGCAAAUCCCAAAAUAGCUAUCUUCUUAUCAGUUACUGUAUUAAACAGACUAUCUAUGAUCCGGGAAGCAAACCUCCUCCUCAACAGAGGAUUGAGCAUCA
B2: 47880682_47887520_1947_CDS_ENSG00000170448_ENST00000381538|human|control|control (ssRNA)
RNA: GGGAGUUCUACAGUCCGACGAUCCUCAUGUUUCCCAAGACAUUCCAUAGGAAUAGGAACUUGACAUGGAGGACACGGUAAUGCAGUCUGAAUAAAUGCUGGCUCAGAAGGCUGUUCCCAAGGGCCUGUAGGCUGGUGCCUGCCCAACAGAGGAUUGAGCAUCA
B3: 51247755_51250570_940_CDS_ENSMUSG00000063273_ENSMUST00000029303|mouse|control|control (ssRNA)
RNA: GGGAGUUCUACAGUCCGACGAUCCCCUUUGGUUUCUUCAACAGCAAGUUUAUCACAAAUCUGCUUUUCAUAGGUACAAAGAUGUUCCAGGGCUUCUCUAUAAAGACCUGCUUCCCGAAGAACUUGAUUCUGAUAUAAGAGGAGCAACAGAGGAUUGAGCAUCA
B4: chr1:149875238:149875239:-_ENSG00000159164_ENST00000369146|hu_mus|FALSE|FALSE (ssRNA)
RNA: GGGAGUUCUACAGUCCGACGAUCUGUGGUUAGUUUAACUUCCUUUUAACUUUUUUUUUUUUUAACAUUUUACAAACAGCUAAAAACUACAACACGUCACAGCUACGUUGGGAGUGGAGAGAGAGUACCAAAGAAAGCAGCCACCAACAGAGGAUUGAGCAUCA
B5: chr5:123980014:123980015:-_ENSG00000168916_ENST00000504926|hu_hu|FALSE|FALSE (ssRNA)
RNA: GGGAGUUCUACAGUCCGACGAUCGGGAGAAACAGCCCGGUAUGCAGGAUGGCUGGGGUCGUACAUCUGUGGGUAAGGAUAAGCAUGCAAGUACUGUAUGUAUGACUGAUGCUGACUCAUGGGUGAGGAGACAGCCACUCUUGUCAACAGAGGAUUGAGCAUCA
B6: chr12:7078717:7078718:-_ENSG00000215021_ENST00000535923|hu_mus|FALSE|FALSE (ssRNA)
RNA: GGGAGUUCUACAGUCCGACGAUCUUUGGAGCCUGUGGGGGAGGAGAUUUUUCGAGGUCUGGCCCGAAUGUCAUAGAUGAUGGGGUACUGGAACCAGGGGAUCCUGAAGUGAAGGCCUUCGGCCAGGAUCGUGUCCUGCUGCACCAACAGAGGAUUGAGCAUCA
B7: chr3:41277855:41277856:+_ENSG00000168036_ENST00000349496|hu_mus|FALSE|FALSE (ssRNA)
RNA: GGGAGUUCUACAGUCCGACGAUCUUCAAUGGCCUCUGCAGCCUCCUUGUCCUGAGCAAGUUCACAGAGGACCCCUGCAGCUACUCUUUGGAUAUUUUCAAUGGGAGAAUAAAGCAACUGCACAAACAAUGGAAUGGUAUUGAGCAACAGAGGAUUGAGCAUCA
B8: chr10:24872911:24872912:-_ENSG00000107863_ENST00000396432|hu_mus|motif|central (ssRNA)
RNA: GGGAGUUCUACAGUCCGACGAUCCUGGUAAAUGGAAGGAAACUUGUUACUGAUAAAAUGCAUUCAUUUAUUCAAUUUUCGGAUUUUAACAAUAUGGCACCCUAAAAAUCAAAUGUACUUUUAUCAUGAGGCACUUUUGUUAGUCAACAGAGGAUUGAGCAUCA
B9: chr13:97419175:97419176:-_ENSMUSG00000021670_ENSMUST00000022176|mus_hu|motif|central (ssRNA)
RNA: GGGAGUUCUACAGUCCGACGAUCGCUUUACGUACAACAGAAAAGGUAAAUCUUCCACAAUAACAAUGCAGACACAAUCACGGAGAGGCUCUCCAUGCUGCCAUGGUUUCCUGGAAUGUUUUUCAGAGUCCAUCUUCUACAAGACAACAGAGGAUUGAGCAUCA
B10: 156755749_156756598_1866_CDS_ENSG00000146909_ENST00000275820|human|control|control (ssRNA)
RNA: GGGAGUUCUACAGUCCGACGAUCCGUCCCCACAAGCUGCUUCUGCAGGUGCGUAUGGUGACUGUUGUCGAUCAUCGGGGCCCCACUCCAGGCGGACCCCACAAUCCACCAGCGACCCGUCUGCUCCGCACUCAAGACACUGUCCAACAGAGGAUUGAGCAUCA
B11: chr7:80571614:80571615:-_ENSMUSG00000078671_ENSMUST00000169922|mus_hu|FALSE|FALSE (ssRNA)
RNA: GGGAGUUCUACAGUCCGACGAUCAUAUACAAGAAUCAAAAGUACAGCAGUUUUACAAUGUAGGAAAAUUUAAUACAUACUAUAUAAACAACAUUAUUUACAUCAGAAAUCACUAGGACAGUGGCAUUUUUCACAAAUAUAAAUCAACAGAGGAUUGAGCAUCA
B12: chr4:147379129:147379130:-_ENSMUSG00000029016_ENSMUST00000137724|mus_hu|FALSE|FALSE (ssRNA)
RNA: GGGAGUUCUACAGUCCGACGAUCCCGUCCAGUCAGUUUAGGGGAGGGAGGUAUUUGCAUUCUACUGUCUAUCUCUGGGCUAAACUGAUGGGAACAAAAUAUCUGGUGACUUAAACACAACAGGAUGUGCACGAGGGAUGAAUUCAACAGAGGAUUGAGCAUCA
B13: chr11:121174221:121174222:+_ENSG00000109929_ENST00000392789|hu_hu|motif|central (ssRNA)
RNA: GGGAGUUCUACAGUCCGACGAUCUGUUGCACAGAAGAAAUAAAGGAUGUAAGCACCAACAUUUGUUACAAUCAGAAGACGGAUAGCUUGUCGGAAGAUGUCAUCUUCUGGCCAUGUGGCUGGAUACACGUAUGGUGUAAAAAACAACAGAGGAUUGAGCAUCA
B14: chr2:192225418:192225419:+_ENSG00000128641_ENST00000304164|hu_hu|FALSE|FALSE (ssRNA)
RNA: GGGAGUUCUACAGUCCGACGAUCAUAGAACACAUGGAAGUUUCUUUCACCUCUUGGCUGUUUAACAACCCGAGAUUUCUCUAAAAGAUAGUUACUUAUUACUCCUCCUAGUGGAUCGCCUUUAAAGUCAAAUUCAAUAUCCAUCAACAGAGGAUUGAGCAUCA
B15: chr2:216981417:216981418:+_ENSG00000079246_ENST00000392132|hu_hu|hu_hu_hu_mus_True|28_98 (ssRNA)
RNA: GGGAGUUCUACAGUCCGACGAUCCUGAUACUGGUCCCCACCAGAAAGGGCAUUAUCAGUGCCAUCUGUGCCAUAGAGGACUAACGCAAUCUCAUCUUUGCUCUCCGCAAACACCUGUCGUUGGACAAACAUAGUCAUCACUUUCAACAGAGGAUUGAGCAUCA
B16: chr2:198351390:198351391:-_ENSG00000144381_ENST00000345042|hu_hu|hu_hu_hu_mus_False|28_48 (ssRNA)
RNA: GGGAGUUCUACAGUCCGACGAUCUCAUUCCCACCCUCCACAGAAAGGCUGCUUCUGAACUCUCAUGUGGUGACACAGCGCUACAGUCCUGAUUUUAACAGAACAGUAGUAAAAAUGCAGUGAUUUAAGUUGAAAGCAGGACACCAACAGAGGAUUGAGCAUCA
B17: 141914647_141914767_731_3pUTR_ENSMUSG00000041688_ENSMUST00000112835|mouse|control|control (ssRNA)
RNA: GGGAGUUCUACAGUCCGACGAUCACCAUAGCAAAAGGGUCAGCUGGCAUGGGCUGAUAAGAAGCAGACUGCUGAGCCCGAGGCAUAGCUGAGUAGGCUUCUCCUGGCUGCUGCUGCGCUGAAGUCAGGCUGGCCUGGGCGUGACAACAGAGGAUUGAGCAUCA
B18: chrX:71549762:71549763:+_ENSMUSG00000019087_ENSMUST00000019231|mus_mus|mus_mus_mus_hu_False|8_88 (ssRNA)
RNA: GGGAGUUCUACAGUCCGACGAUCAAACCCGUGUACUUCUUAUUGUUACAUCACCCCCACCAGAAAACGAUAACGACAGCCAAGCAGGACAGACAGUUAAGUAGUACUUCCACACUCCCAAACUCAGAGGAACCUCAAACCUUACAACAGAGGAUUGAGCAUCA
B19: chr7:141438946:141438947:+_ENSG00000106028_ENST00000265304|hu_mus|hu_hu_hu_mus_True|18_98 (ssRNA)
RNA: GGGAGUUCUACAGUCCGACGAUCGACGAAAUACCUGACAGGUCUUCCUUCGAAACAUGGCUUCUGUUUUUCUUACAACCUAAUCUUUAGGCUUUUCCUAAAGGAAAGAAAGAAAAGGCCCAGCCACUAAAUCAAGAAACUACACAACAGAGGAUUGAGCAUCA
B20: 48685348_48686994_574_CDS_ENSG00000162869_ENST00000294952|human|control|control (ssRNA)
RNA: GGGAGUUCUACAGUCCGACGAUCGUCAACCACAGCUUGGUGCUGGGCUGCUUCUGUCUCCAGAGUGGCCAGUCGACUCCUCAGCUCUGCUUCCACAUGCUUGUGCUGCUCAUCAGCUUCAAAAAAUUGUAUAUGCAACCGUUCCAACAGAGGAUUGAGCAUCA
B21: 65811580_65813991_1083_CDS_ENSMUSG00000029201_ENSMUST00000031103|mouse|control|control (ssRNA)
RNA: GGGAGUUCUACAGUCCGACGAUCACCAACGCUGGCCUUUAGAAACUUAUUCCCAAUUCUUUGGUCCAUCCCGAUGGCCGUUGCCACCUCUUCCACAUCGGCGCCUGUUGCUUCACACAGAGCGCUGAUGGAGUUGAUGCUGCUCAACAGAGGAUUGAGCAUCA
B22: chr13:77182921:77182922:-_ENSMUSG00000021597_ENSMUST00000151524|mus_hu|FALSE|FALSE (ssRNA)
RNA: GGGAGUUCUACAGUCCGACGAUCAGUGUGUACCCCAGGACACACUUUCAAAUUCUCAGGCAGUUCCUUAAGAAUGUGUGGGAGUUUCUGCAAUGUCUUUAUAUUUCCAGCAUAAAGAUCCAGUAACCAGUCAGUAUGAACACUCAACAGAGGAUUGAGCAUCA

This is an account of results in PMC12136788.

This is one part of the list.

For the test, the target named is T1, UNK ZnF1-3 (human, UniProt Q9C0B0 31-174).
T1 sequence: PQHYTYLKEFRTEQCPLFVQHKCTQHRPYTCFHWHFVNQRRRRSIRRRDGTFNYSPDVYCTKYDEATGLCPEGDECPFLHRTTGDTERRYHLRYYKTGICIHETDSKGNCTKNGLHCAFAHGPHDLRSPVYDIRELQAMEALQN
Put plainly: nsRBNS (natural sequence RNA bind-n-seq); RBNS binding buffer (assumed for nsRBNS): 25 mM Tris pH 7.5, 150 mM KCl, 3 mM MgCl2, 0.01% Triton X-100, 500 ug/ml BSA, 20 U/ml SUPERase-In, 4 C; UNK is unkempt and MSI1 is Musashi-1; names of the RNAs are library labels; protein concentration not given here; high values mean tight binding.
B1 showed a binding signal of 1.18 enrichment R.
The result for B2 reads 0.888 enrichment R.
Molecule B3 came in with a binding signal of 1.41 enrichment R.
The result for B4 reads 1.81 enrichment R; that for B5, 0.531 enrichment R.
The result for B6 reads 1.73 enrichment R; that for B7, 1.72 enrichment R; that for B8, 0.805 enrichment R.
The result for B9 reads 0.746 enrichment R.
With B10, the binding signal was 0.818 enrichment R.
The result for B11 reads 1.03 enrichment R.
Then B12, with 1.09 enrichment R; and B13, with 1.67 enrichment R.
Then B14, with 1.09 enrichment R.
With B15, the binding signal turned out to be 0.996 enrichment R.
In turn, B16 yielded a binding signal of 1.1 enrichment R.
The result for B17 reads 0.769 enrichment R.
Then B18, with 1.74 enrichment R; and B19, with 0.926 enrichment R; and B20, with 0.911 enrichment R.
Take B21: the binding signal amounted to 0.425 enrichment R.
Consider B22, for which the binding signal stood at 0.633 enrichment R.
